B1: GBRAP_125_3072 (protein)
chain: ARAALLEDLAALARALGLSEDEVEELVALAAASSLRQALIALLLAEGAEEAADAVAELTEEQAAAVLRELRAELEANPDLTKEEVVARLLELARKARAEA
B2: GBRAP_160_4658 (protein)
chain: SPEIEELKKRIEEIFEEAKEMVKGETHEQRVAIARVAVGDVVLELSESPLVSEEAEDEVAKIGDALVAELEANPDFTDEEVEALIDKALEEVLKVLEKYS
B3: GBRAP_128_3393 (protein)
chain: SQEELLKEALKLIDEITKADLETARELTEKLMELFGKLNLEEQEKVVDYFESKLPELTAEKLDVVADVLREKRPELDPEGAALVNGLEVAALNEAEEKEE
B4: GBRAP_122_2947 (protein)
chain: SETREELEELVERMVEALDAGDDEELEALAEELVERFREISPEEAREAVERLIERVKDDEEKLERALKALLKAFYKNEPLTPAQEAAADVVAEEFDRLSE
B5: GBRAP_160_4526 (protein)
chain: SEYLEEVEKELRETAERAIELVKGESAEQRAVIVSMEFGSFAMELAEDERASDEEVDIVIDEEDKIVATILANPDLTDEEIAALIRESVERIIERLRKLY
B6: GBRAP_160_4844 (protein)
chain: KEKLEKVKKELEEARKFVLSLVDEVSVEDLAKFARAELGSTALYLLEEGYINEEAFDAILEEADELEEELLENKDASVEEIKKIIEEHVEKAIKEVEKLL
B7: GBRAP_160_4630 (protein)
chain: SEKLEKAKKAIEEARDFVLSLVPEVNVEQAAHALDTEFGSVILELREEGLISEETEDRMMEIVDKARKYMLENPDLTEEEIKELIEKTAEEIKKELEKEY
B8: GBRAP_83_6911 (protein)
chain: KEKVAVATTGDHIEEAVDAVIDLTKEEGYEVSLEILTTKEHREKVLEAVRRLAEEGIETEVLVLIKGATEEEAEELKEELEKIAKEYGVNIKIEVIILEE
B9: GBRAP_128_3295 (protein)
chain: SAAALRAAYRARLRALLGLTPEELRAATLALIKEAAAQGLEAVELFAEALEELAPEFTVEQLEAIAEALREAMKTVDPETAAVLADAESVALLEAEEKEE
B10: GBRAP_11_2866 (protein)
chain: NKEKLKEIAELLEKLIEVLERLLEEGVDNEELREEALKLAKEILELVKKYSDEADVKLAEYALELLEKAEEDPANAEQYVQEALAFARVLLGNVLLRIDE
B11: GBRAP_78_6599 (protein)
chain: EVEELVDEALELLGEAARLARALPPEVRDEVLDHLVDAASDLVESEEEEGTLEHLEEALKHVEAALELVRASDSPAAPELAAVLERAAKLLKEAIKLEKE
B12: GBRAP_52_6060 (protein)
chain: SKEEIEKLAKEIYEAIKAGDKEKALELLKEAIKKLSVEEITELLKLTAKLVAKGNDEQHELFVDIMDEFEDLMIEAGISEEEALIIVGDALATLAKEVAK
B13: GBRAP_11_2717 (protein)
chain: KKEKLEELAKRAEALAKEVEKLIKEGPKEEKLKALAKEVAALAKEAKAAGVDPAIVKTLEIAAEDLKEAIADPENVVEHLQNAAAALRVAAGQLLLEREE
B14: GBRAP_160_4121 (protein)
chain: NEKELKIAKDNAEDFEETLKEIEDLSNEEAGTLAIVTLGEAILDASELDGKFEEEEKFAEELEEELRKTAKEDPEKLKEVSKEKLEKARKYFEEKAKKLE
B15: GBRAP_160_4555 (protein)
chain: SKEQEELIKSVEEAKKFVLEVVEEESNEEAKTVAIGEFGSVLMEAFLSGKFSDELEDKLGELLDKLEEELEKAKNGSKEEVKKIITKYFDEAIELIKKSK
B16: GBRAP_184_5306 (protein)
chain: MVRHVTIEAKTAEEAIKQIEAAAAEAKAAGAKLELTLLLDNVDVEGFKKIAELLKELKEEGIIKSALVEITNDLSEEEIDEYIKIADEAGVTLVIALPEE
B17: GBRAP_80_6760 (protein)
chain: ARARLEAALAELIALDPEVGTRLRAVLERALAAGVDPELAARTVEALVELAKLDPEKARELAERLIAELEEALAAGDVAGAEAALVDAESDALVEVEELE
B18: GBRAP_35_5503 (protein)
chain: SSAATEVEMLVATIEDLVLAVPDLDPETAASIARQLIRSARELAADLADDAEGLERLRDALEALLAAIRKHYGDDPLAQEVAAELEALIAELDARLAAAR
B19: GBRAP_14_3881 (protein)
chain: KEEIVKTVEEKMEEMIENIKKLLPDLPEEVWEKIEELTEEIIEKVKEEDLNLEELDELLDEMVEEIDEHAAGLDPETRAALVALLGVETNEILLKVDEVE
B20: GBRAP_35_5585 (protein)
chain: EIEEIILDTVKDWAEATIEAIKEEDIETVVKLLKAFIRTVRLAIKDLKNNLEALKKIAEEIKKVIEALKKYRSDNKEIQELVKELEELLKEAEELAKKNE
B21: GBRAP_160_4381 (protein)
chain: SEELKELKERVEELKEEFEEEAEDLETEEVRTLAIGVLSEIAADVWSNEAVSEETKDKIMEIIDEAIEKIRENEDAEPEEIVEIVTEALEKIIELIKEEE
B22: GBRAP_52_6369 (protein)
chain: KLEEALELLEKALEAMLAGKEEEAEEILRELVENYDEETILAAAKKLAEKLKSGTLEEAEAFLELAIMLADIMEEEGRSEAVGDEIEAIAAKTYMEILKK
B23: GBRAP_160_3966 (protein)
chain: SEEVEKLIEEIEEIFEEAKELIEGESFEERLTIVRVAVGEVLLLADESPLVSDETEEKIAEVGDELVATLEANPDFSLEEIKALIDEAEEKIKEIILEEH
B24: GBRAP_11_2781 (protein)
chain: KKEKLEEIIKKAKEAIELAKKLLKEGLDNEELIKKLKKALEELKKLVEENLDEGTKKLVEIAEELFKEFLEDEENKEEYLKNLIAALRVLEGQALLELEE
B25: GBRAP_125_3150 (protein)
chain: KKEALLELAEALARLAGLSEEEIAELREIAEASDPAQTVVAILLAAGWEEAAELAEKVIDKLTEEELEELIALARALLDASPEEARAALLALLEELLAKQ
B26: GBRAP_184_5103 (protein)
chain: KTLVVEVEADTKEEALAKLFKAIDEAAAQGADLIVLLKLNNVSEEEIVEVVREIGKRAKEAGIPRLTIGIENELSEETVDKLIKVADELGINLVLAIPDE
B27: GBRAP_160_4640 (protein)
chain: PESLKELKEIVDEGTAIVLEEIDAGDLANAIAALRVMVGEVVREAMEDPRFSDEDVDKLDKLGDAHVARLEAARGASKEELKAIVEEAAADLKALLESFY
B28: GBRAP_128_3160 (protein)
chain: AVEEARKKTEEIMEKIKNSSLEEAKKLVEELVDMLGTLNEEEVEAVREVVIEKLPELSVEKLEILADVLRKNRDKLPPYAQEEAADIEVEALNEAEEKEE
B29: GBRAP_83_6928 (protein)
chain: KEKIVVAANDDNIDEAFEAAIDLQKNEGYEVDVEVIITKEGFPKLKKAFEKMAKAGWNGTLDILAVGATKEEVEKLKAELEAIAKKYGVNVKINVTQVEP

The values that follow come from the supplement of paper PMC12632987.

Whole data set: some 4,500 sequences, median “median log2 fold change of GCK-ALFA target abundance (FLAG IP / Myc IP barcode read proportion)” near 0.078, cut for the lowest 2% near -0.6. The list shows a part of the results.

Chain of GABARAP, O95166 (O95166 whole entry, the tested form may be a part): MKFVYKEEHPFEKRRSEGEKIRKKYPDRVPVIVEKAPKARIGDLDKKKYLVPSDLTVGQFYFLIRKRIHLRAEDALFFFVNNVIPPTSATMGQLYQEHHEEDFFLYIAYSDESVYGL

This assay has as its target GABARAP, O95166. Description: median log2 fold change of GCK-ALFA target abundance (FLAG IP / Myc IP barcode read proportion) (log2 ratio); each designed protein is fused to an ALFA-tag nanobody in HEK293 cells to bring the named protein to FLAG-tagged glucokinase (GCK); Myc marks an untargeted standard; higher = target protein stabilised (more abundant). The conditions noted are these: target protein: 3xFLAG-MCP-GCK-ALFA reporter; HEK293 landing pad (RPLP). The essentials:
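The readout is target abundance, the per-binder median log2 ratio of FLAG to Myc barcode read proportions. It came from HEK293 landing-pad cells carrying a recombined ALFA-nanobody-fused binder library, induced with 2 μg mL^−1 doxycycline and transfected with a plasmid for a FLAG-tagged target and a Myc-tagged standard. After 48 h, lysates were immunoprecipitated with anti-FLAG and anti-Myc, and circular RNA barcodes were reverse transcribed, amplified and sequenced. Each barcode needed a proportion of at least 10^−7 in both replicates and each binder at least 3 barcodes per replicate, a pseudocount of 10^−6 was added, and the replicates were pooled.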
As to B1, the “median log2 fold change” value amounted to 0.146.

As for B2, the “median log2 fold change” value was -0.00472.

As for B3, the “median log2 fold change” value stood at 0.135.

Regarding B4, the “median log2 fold change” value is 0.0267. Under B5 stands -0.317; under B6, -0.0674.

On to B7, for which the “median log2 fold change” value was -0.081. With B8, the “median log2 fold change” value is -0.0177. The value for B9 was 0.219; that for B10 was -0.0773. Under B11 stands 0.039; under B12, -0.416; under B13, 0.249. Take B14: the “median log2 fold change” value stood at 0.308. As to B15, the “median log2 fold change” value is -0.131. The value for B16 was -0.0661; that for B17 was 0.126. Under B18 stands 0.117; under B19, -0.00202; under B20, 0.189.

As to B21, the “median log2 fold change” value was 0.00756. For B22, the “median log2 fold change” value is -0.566.

Turning to B23, the “median log2 fold change” value was -0.398. On to B24, for which the “median log2 fold change” value is -0.159.

B25: the “median log2 fold change” value is -0.0683.

Regarding B26, the “median log2 fold change” value was -0.0904. Consider B27, for which the “median log2 fold change” value came to 0.133. Under B28 stands 0.266. The value for B29 was 0.0213.
